According to article PMC5522071, “Preclinical development of G1T38: A novel, potent and selective inhibitor of cyclin dependent kinases 4/6 for use as an oral antineoplastic in patients with CDK4/6 sensitive tumors” (Oncotarget, 2017):

What was measured:
[1] = system: myeloid progenitors (Mac1+ Gr1+); assay: EdU incorporation in bone marrow; settings: both the 50 and 100 mg/kg cohorts, 7 days, 12 hours post-treatment
CDK2/Cyclin E = CDK2/Cyclin E (Homo sapiens, UniProt P24941)
CDK2/Cyclin A = CDK2/Cyclin A (Homo sapiens, UniProt P24941)
neutrophils = assay: Peripheral blood analysis, 28 days daily oral dosing; settings: 100 mg/kg, after 28 days of once daily oral dosing

CC(=O)c1c(C)c2cnc(Nc3ccc(N4CCNCC4)cn3)nc2n(C2CCCC2)c1=O [palbociclib, reference compound]
reduction in myeloid progenitor proliferation [1]: > 50%

CC(C)N1CCN(c2ccc(Nc3ncc4cc5n(c4n3)C3(CCCCC3)CNC5=O)nc2)CC1.Cl.Cl [G1T38, 2′-((5-(4-isopropylpiperazin-1-yl)pyridin-2-yl)amino)-7′, 8′dihydro-6′Hspiro[cyclohexane1,9′ pyrazino[1′,2′:1,5]pyrrolo[2,3-d]pyrimidin]-6′-one di-hydrochloride]
selectivity for CDK4/ cyclin D1 than CDK2/cyclin E (CDK2/Cyclin E): > 1000 fold | selectivity for CDK4/ cyclin D1 than CDK2/cyclin A (CDK2/Cyclin A): > 1000 fold | decrease in neutrophils (neutrophils): 48%
